Out of some 48,000 compounds screened, about 450 (0.94%) were called active. Not shown: some 19% with an inconclusive outcome. Calls follow the shape of the dose curve; as a rule, active = well fitted inhibition curve with a large enough effect; inconclusive = small, poorly fitted or top-dose-only effect; inactive = no such curve, though single readings can be large or run the other way. The list shows a part of the results.
Experiment: Primary qHTS for Identification of Small Molecule Inhibitors of Huntingtin Promoter Activity; also: nearly all actives have a fitted effect of over 50% in size
Details: HEK293 HTT promoter firefly luciferase reporter (activity 0% = vehicle and -100% = no light), 24 h; series mostly up to 57.5 µM; activity change, negative = inhibition: at the top concentration
How it was run: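 Quantitative HTS used concentration series of up to 57.5 uM final on HEK293 luciferase reporter cells, 24 h at 37 degrees C. Readout was Dual-Glo firefly luminescence.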

Activity change, negative = inhibition, inactive:
COc1ccc(-c2ccc(=O)n(CC(=O)Nc3ccc(N(C)C)cc3)n2)cc1 0%
CSc1ccc(C2c3c(oc4ccc(F)cc4c3=O)C(=O)N2c2ccc(C)cn2)cc1 (stereo not drawn) 0.901%
Cc1cccc(N(C)C(=O)C2CCN(S(=O)(=O)c3cccc4nonc34)CC2)c1 7.66%
Cc1ccc2nc(Nc3ccc(Br)cc3)nc(-c3ccccc3)c2c1 -7.54%
CCOc1ccc2oc(=O)cc(CN3CCN(C(=O)c4ccc(Cl)cc4)CC3)c2c1 -25.1%
CCCCc1nn2c(=O)cc(COC(=O)CNC(=O)c3ccccc3C)nc2s1 -17.2%
CCN(CC)CCOc1ccc(C(O)(Cc2ccc(Cl)cc2)c2ccc(C)cc2)cc1 (stereo not drawn) 5.56%
CCc1cccc(CC)c1NC(=O)Cc1csc(C)n1 -8.42%
Cc1cccc(CN2C(=O)c3ccccc3Sc3ccc(C(=O)NCCc4ccccc4)cc32)c1 -24%
Cc1cc(Nc2cccc(F)c2)n2nc(-c3ccco3)nc2n1 -8.64%
NC(=O)C1(N2CCCCC2)CCN(C(=O)Nc2ccc(Cl)c(Cl)c2)CC1 -12.4%
COc1cccc(NC(=O)c2sc3nc(C)c(C(=O)Nc4ccc(C)cc4C)c(-c4ccc(Br)cc4)c3c2N)c1 -32.9%
Cc1cc(Cl)ccc1NC(=O)C1CCN(S(=O)(=O)c2ccc3[nH]c(=O)ccc3c2)CC1 -9.2%
COc1ccc(CNC(=O)c2cc3sccc3n2C)cc1 -1.33%
Cc1ccc2nc(SC(Cc3cc(Cl)ccc3Cl)C(=O)O)[nH]c2c1 (stereo not drawn) -1.39%
Cc1cccc(Cn2c(=O)n(CCc3ccccc3)c(=O)c3sc4ccccc4c32)c1 -6.61%
Cc1ccc(CCNC(=O)CCSCc2ccccc2F)cc1 -11%
CCOC(=O)c1cc(-c2ccccc2)nn1Cc1ccccc1 72.7%
O=C(CCOc1ccccc1)N(Cc1cccnc1)c1nc2c(Cl)cccc2s1 -24.3%
O=S(=O)(Nc1c(F)cccc1F)c1ccc2c(c1)OCCO2 -4.31%
COc1ccc(C)cc1NC(=O)C(CCSC)NS(=O)(=O)c1ccc2c(c1)oc(=O)n2C (stereo not drawn) -32.9%
CCn1nnc2cc(C(=O)Nc3cccc(C(F)(F)F)c3)ccc21 20.6%
CCOC(=O)N1CCc2c(sc3c2c(=O)n(Cc2ccccc2)c(=O)n3CC(=O)Nc2ccccc2F)C1 -7.92%
CC(C)NC(=O)c1cnc2sc(N3CCCCCC3)nn2c1=O 10.9%
CCOC(=O)c1c(C)[nH]c(CCC(=O)Nc2ccc(N(CC)CC)cc2C)c1C -16.4%
COc1ccc(CN(C(=O)Nc2ccccc2)c2ccccn2)cc1OC 7.44%
Cc1ccc(S(=O)(=O)N(Cc2nc(-c3ccc(Cl)cc3)no2)C2CCCCC2)cc1 -25.9%
CCOCCCNC(=O)N1CCN(S(=O)(=O)c2ccc3c(ccn3C)c2)CC1 -15.2%
COc1ccc(-c2noc(-c3ccc(N4CCOCC4)c([N+](=O)[O-])c3)n2)cc1OC -5.78%
COc1ccccc1N1CCN(CCC(=O)Nc2cccc(F)c2)CC1 -27.7%
Cn1c(=O)c2c(SCC(=O)NCC3CCCO3)nc(-c3ccccc3F)nc2n(C)c1=O (stereo not drawn) -7.87%
COc1cccc(/C=C(\C#N)c2nc3ccc(C)cc3[nH]2)c1 25.7%
CCOC(=O)c1ccc(NS(=O)(=O)c2cc3c(cc2C)n(C)c(=O)c(=O)n3C)cc1 -16.1%
CCOc1ccc(NC(=O)CSc2oc(-c3cccs3)nc2S(=O)(=O)c2ccc(Cl)cc2)cc1 -12.6%
O=C(Cn1c(=O)n(-c2ccccc2)c(=O)c2ccc(C(=O)NCc3ccc4c(c3)OCO4)cc21)Nc1ccc(Br)cc1F -7.08%
CCOc1ccc(CNC(=O)c2cnc(SC)nc2CC)cc1 -2.59%
CCCCSCCCNC(=O)CN1C(=O)COc2ccc(S(=O)(=O)N3CCCC3)cc21 -20.8%
Cc1cc(NC(=O)c2ccc(Cl)c(Cl)c2)ccc1-c1cc2ccccc2oc1=O -1.77%
COc1ccc(NC(=O)Cn2c(=O)n(-c3ccccc3)c(=O)c3ccc(C(=O)NCc4ccc5c(c4)OCO5)cc32)cc1 -13.2%
CC1(C)C(=O)N(CC(=O)Nc2ccc(OC(F)(F)F)cc2)c2ccccc21 -27.6%
CCCSc1ncc(Cl)c(C(=O)Nc2ccc(CC)cc2)n1 -14.4%
Cc1ccc(CNC(=O)CSc2nc3ccsc3c(=O)n2-c2ccc(C(=O)O)cc2)cc1 -7.26%
CCN(CCCNC(=O)c1cc2cc3cc(OC)ccc3nc2s1)c1ccccc1 -1.34%
CCOC(=O)C1CCC(CN(Cc2c(Cl)cccc2Cl)S(=O)(=O)c2ccc(F)c(C)c2)CC1 (stereo not drawn) -24.2%
COc1cccc(NC(=O)CCNS(=O)(=O)c2ccc3c(c2)CCCC(=O)N3)c1 -6.05%
O=C(CCn1cccn1)Nc1ccc(Br)cc1F 24.8%
O=c1c(NCc2cccs2)nccn1-c1ccc(F)cc1 41%
COc1cccc(NC(=O)CN(CCc2ccccc2)S(=O)(=O)c2ccc(Cl)cc2)c1 -18.2%
Cc1nc2ccccc2n1CCc1nc2c3ccccc3nc(SCc3ccc(C#N)cc3)n2n1 15.7%
Cc1cccc(-c2nc3c4ccccc4nc(NCCc4ccccc4)n3n2)c1 41.8%
Nc1ccn([C@@H]2O[C@H](CO)[C@@H](O)C2(F)F)c(=O)n1 -22.3%
O=C(COCc1cc(-c2ccc(F)cc2)on1)Nc1cc(F)ccc1F -15.6%
O=S(=O)(NCc1nc2cccnc2n1Cc1ccccc1Cl)c1ccc2c(c1)CCCC2 -15.3%
CCN(CC)CCCNC(=O)Cc1csc2nc(-c3ccc(Cl)cc3)cn12 -11.4%
CCc1cc2c(cc3c(=O)n(CCCC(=O)NCc4cccc(Cl)c4)ncn32)s1 -31.1%
Cc1cc2c(n1-c1ccc(C(=O)NCc3ccccc3Cl)cc1)CCCC2 27.5%
COc1ccccc1N1CCN(C(=O)c2c(C)oc3ncn(C)c(=O)c23)CC1 10.5%
O=C(CCSCc1ccccc1Cl)NCc1ccc(F)cc1Cl -14.6%
Cc1cccc(CCNC(=O)c2cc3c(=O)n(C)c4ccccc4c3n2C)c1 5.35%
CC(C)c1cnc2c(c1SCC(=O)NCc1ccccc1Cl)c(=O)n(C)c(=O)n2C -1.65%
O=C(c1ccc2c(c1)N(Cc1cccc(F)c1)C(=O)c1ccccc1S2)N1CCCC1 9.41%
COc1ccc(C(CC(=O)Nc2ccc(C(C)=O)cc2)N2Cc3ccccc3C2=O)cc1 (stereo not drawn) 65.7%
Cc1cccc2c1-c1sc(C(=O)N(C)c3cccc(Cl)c3)cc1CO2 -25.2%

From PubChem BioAssay AID1508623 (National Center for Advancing Translational Sciences (NCATS), 2021)
